Source: publication PMC6212790
The list shows a part of the results. At the low end of the ranking the order means little.

target: T1, GST-Rok-C97-191 (UniProt O34857); assay: protein binding microarray; settings: Rok is a gene silencer of Bacillus subtilis; high values mean tight binding; most listed sequences are background and not binding sites; double strand, one strand shown;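 also: rank score from −0.5 (least bound) to 0.5 (best bound)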
T1 sequence: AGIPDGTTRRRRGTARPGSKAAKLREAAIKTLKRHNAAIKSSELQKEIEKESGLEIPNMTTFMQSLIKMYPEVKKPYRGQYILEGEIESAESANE

Sequence	binding signal [E-score]
CTGAAATC	0.0754
ATGCGCTA	0.219
ACACCATC	0.00943
ATCGATAA	0.254
GGATAGCA	0.037
AAAAGAGC	-0.185
CGAACCAC	-0.165
CAGCAACG	-0.049
AGCTAGCG	0.0179
ATATAGGC	-0.04
CTACGATC	0.228
ACAATAGC	0.132
GCGTTATA	0.194
ATCCGCCC	-0.107
ACGTGACT	0.0412
ACAGGCTA	-0.0679
CTATCGCA	0.109
AGTCGGAC	-0.13
ACATGAGC	0.158
CCTGCTCC	-0.376
CCAAAGTA	0.144
CGTTTTCC	-0.065
TAACCTCA	0.0294
ACTTTAAC	0.131
GACCTTGC	-0.129

Sequence	binding signal [E-score]
ATCGTAGG	-0.00208
GACAGCGA	-0.193
AGAATGAC	0.117
GACTAGCA	0.101
AGACCACG	-0.138
AGACCCGA	-0.216
ATTACCAC	0.181
ATCCCCTA	-0.0867
CAGGCAGG	-0.243
GCATCTCC	-0.165
AGGTTATG	0.0503
AAGGAGGC	-0.227
AGTTGCCA	0.0801
GCGGTGCA	-0.13
AGAACGTG	-0.0462
AGTCGGAA	-0.0315
GGAAGTAA	0.109
CAGTTACC	0.221
CGTGACAA	-0.00338
CAAAAACA	0.11
ATCATAGC	0.114
ATCCGTAA	-0.0485
ATAACGGA	-0.0509
TAACGGAA	0.0791
AGGCATCC	-0.109

Sequence	binding signal [E-score]
GCGCTCCA	-0.26
CAGGGTGA	-0.181
CTGAAAAG	0.0606
AACAGCCC	-0.177
AGTCCTTC	-0.125
AGGGAGCG	-0.258
CTAGTTTC	0.422
GGGGACTA	-0.0683
ACTGAAGA	-0.0913
AAATAGTG	0.215
GAGTAGGC	-0.0165
ACTGATGG	-0.176
GGGTCTCA	-0.222
CCAGTCTC	-0.14
ATTTGGGC	0.0587
CAGGATGG	-0.0625
CAATACCG	0.121
ACGTTGGC	-0.187
CACGAAAC	0.146
CGGCGTAA	-0.0586
TGCCCCCA	-0.303
CGTAGCCC	-0.128
CAAACAGC	-0.206
GCGGGGTA	-0.137
CCCTCGTC	-0.23

Sequence	binding signal [E-score]
CGTACTCC	-0.232
AATCAAGA	0.0438
GGTGGTCA	-0.312
AAGGAACA	-0.0989
ACCCATAC	0.107
ACACTATG	0.237
CGCGCTAA	0.329
ATAAGATG	-0.0116
CAATTTGG	-0.0196
CATCTCCC	-0.194
ATGCCGCG	-0.151
CTCTGCTA	-0.145
CACCGTGG	-0.246
CTTCTAGA	-0.0324
AGATCCCG	0.129
CATCACGC	-0.168
ACTAAAAA	0.26
CAAATTCG	0.0315
CCACGTCC	-0.259
CCCGGGAG	-0.222
AATATGGG	0.0369
ACTATAGC	0.207
AGTGTCGA	0.0223
AACCCGAC	-0.183
ACCCTGTA	0.0602

Sequence	binding signal [E-score]
AACACCCT	-0.0153
CTCTGCCC	-0.27
CCCTTGCC	-0.364
ATCAGTGG	-0.0342
ACAAAATG	0.0786
AAAGATGG	0.0619
CATACACA	0.12
ACGGGCCG	-0.271
ATGTGGAC	0.115
TAACTAAA	0.23
GACCTCAA	-0.241
GTCTGCAA	-0.144
AAGGGAAT	-0.106
ACCTGATA	0.0129
GATGGCAC	-0.173
CCGTTAGC	-0.185
AGCAAACG	0.0529
GATGTAAA	0.164
GACAATCC	-0.047
AGCCTTAA	-0.125
CCTAAAAA	0.11
GAATGCTA	0.131
GTTAGTCA	-0.00135
ACATCCCG	-0.0956
ACTCAGCA	-0.00317

Sequence	binding signal [E-score]
ACTTAAGC	-0.0144
GAGGAAAA	-0.0709
CCTATGCG	-0.247
AATCAGAC	-0.0483
ACATACCA	0.237
GGCATAAC	-0.00834
CACGATCA	-0.0988
AGGGATGG	-0.218
CAGCAAGC	-0.224
CTTCATTC	-0.025
CCAACTTA	0.00496
GGCACTTA	-0.0815
GCCTGAAC	-0.187
GGTGGCGA	-0.0613
CGCATTAC	0.0403
CCCATCGA	-0.219
CAGAAGAA	0.0124
CATCTCAG	-0.0918
GATTGCGC	-0.0915
AGACAACG	-0.0922
ACAGGGGA	-0.24
CATGGGAA	-0.129
ACCCCCAC	-0.292
AGGCCTAT	-0.0591
ATATCGTG	0.119

Sequence	binding signal [E-score]
CAATTGAC	0.132
CCGTCGCA	-0.28
ACGCCTCG	-0.194
ACTGGAGC	-0.231
CGAGTACC	-0.0938
CGGGGCCC	-0.321
TGGCAGAA	-0.0188
ATGGCGGC	-0.268
ATCCCTAG	-0.0443
CACAGGAC	-0.113
CTCCCGGC	-0.174
ATAGATGG	0.192
AGAGCCAA	-0.0861
ACACTGCC	-0.236
ATAACATC	0.00847
AGGGCCAG	-0.0808
ACACTAGA	0.179
CAAGAGTG	0.0414
GCCCGTAC	-0.243
GCAGTCGC	-0.288
CCCGCGGA	-0.25
CAGTTCGC	-0.261
